PubChem BioAssay AID2675 (National Center for Advancing Translational Sciences (NCATS), 2010)
Hit rate of the full screen: of about 280,000 compounds, about 100 (0.036%) were called active. Inconclusive means that the source gave no clear call. Such entries were picked first, then a sample of the others. The call rests on the fitted dose curve; in most records, active means well fitted inhibition curve with a large enough effect in the signal ratio, with a control signal flat (not every such curve was filed as active); inconclusive means small, poorly fitted or top-dose-only effect, or effect the other way, or a change in a side signal; inactive means no such curve, though single readings can be large or run the other way; the % refers to the signal ratio. Where the call is inconclusive, the potency comes from a doubtful curve fit. “Side channel” marks fits to a control or component signal instead of the main read-out.

The compounds below were run against Muscleblind-like protein 1 (Homo sapiens) (UniProt Q9NR56) (assay: qHTS Assay for Inhibitors of MBNL1-poly(CUG) RNA binding). Details: TR-FRET MBNL1-His/biotin-(CUG)12 binding, 665/545 ratio; activity change, negative = inhibition: at 57.5 µM (top of the series).
Procedure, shortened: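 Compounds (final 92 nM to 58 uM) are added to His-tagged MBNL1 and biotin-(CUG)12, then terbium anti-His antibody and streptavidin-XL665 (5 nM final). After 60 min at room temperature, the 665/545 nm ratio is read.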
On the % scale 0 is the no-effect control and ±100 the full control effect; potency means the concentration at half of the fitted maximal effect; tags describe the fitted curve by direction and shape or compound fluorescence and quenching.

UniProt Q9NR56, sequence (Q9NR56 whole entry, looked up): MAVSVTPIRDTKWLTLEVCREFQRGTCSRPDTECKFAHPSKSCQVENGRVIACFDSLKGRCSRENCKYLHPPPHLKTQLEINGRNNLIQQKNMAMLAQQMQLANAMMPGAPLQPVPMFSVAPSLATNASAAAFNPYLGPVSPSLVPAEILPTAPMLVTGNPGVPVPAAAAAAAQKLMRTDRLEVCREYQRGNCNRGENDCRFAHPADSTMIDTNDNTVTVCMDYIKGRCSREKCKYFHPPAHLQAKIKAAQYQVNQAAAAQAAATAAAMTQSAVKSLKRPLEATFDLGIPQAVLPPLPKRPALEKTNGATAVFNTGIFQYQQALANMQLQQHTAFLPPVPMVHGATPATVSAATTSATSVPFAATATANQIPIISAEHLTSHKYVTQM

Structure (SMILES)	Potency	activity change, negative = inhibition
Cc1ccc2oc(=O)c3cc(C(=O)NCCCN4CCN(C)CC4)sc3c2c1	inconclusive: 3.55 µM [quencher, side channel, full curve]	
COc1cccc(/C=C/c2n[nH]c(=O)c(C#N)c2C)c1	inconclusive: 15.8 µM [quencher, side channel, partial curve]	
O=c1[nH]c2ccccc2cc1CN(c1ccccc1)S(=O)(=O)c1ccccc1	inconclusive: 2.51 µM [fluorescent, side channel, full curve, poor fit]	
COc1ccccc1NC(=O)CC1C(=O)Nc2ccccc2N1C(=O)c1ccccc1 (stereo not drawn)		inactive: -7.4%
Nc1nc(-c2ccccc2)c(N=Nc2cccnc2)s1	inconclusive: 7.08 µM [quencher, side channel, partial curve]	
O=C(NNc1c2ccccc2nc2ccccc12)C(O)c1ccccc1 (stereo not drawn)	inconclusive: 11.2 µM [quencher, side channel, partial curve]	
CCOC(=O)C(C(C)C)C(N)Cc1ccc(F)cc1 (stereo not drawn)	inconclusive: 50.1 µM [inhibitor, partial curve]	
O=C(Nc1cccc(F)c1)c1ccc2c(c1)OCO2		inactive: -2.59%
CN(C)c1ccnc(Nc2ccc(O)cc2)c1C#N		inactive: 1.98%
COc1cc2[nH]c(C(=O)NN)c(N)c2cc1OC	inconclusive: 20 µM [quencher, side channel, partial curve]	
COc1ccc(C(=O)/C=C2/C(=O)Nc3ccccc32)cc1		inactive: -1.46%
Cc1ccc2nsnc2c1S(=O)(=O)N1CCN(C)CC1	inconclusive: 10 µM [quencher, side channel, partial curve]	
Cc1ccc(NC(=S)NNC(C)(C)C)cc1		inactive: 8.55%
O=C(N/N=C/c1ccccc1Cl)C1CC1		inactive: 13%
CC(C)(C)C(=O)NC(=S)NNC(=O)C(c1ccccc1)c1ccccc1		inactive: -1.24%
O=C(CSCC(=O)Nc1cccc([N+](=O)[O-])c1)Nc1ccccc1	inconclusive: 28.2 µM [quencher, partial curve]	
O=C(Nc1cnn(Cc2ccccc2)c1)NC12CC3CC(CC(C3)C1)C2		inactive: -2.78%
CCc1nc(SCC(=O)NNC(=O)c2ccc(OC)cc2)c2ccccc2n1		inactive: 37.2%
NC(=O)c1nsc(C(=O)N(CC(=O)NCc2ccc3c(c2)OCO3)C2CCCC2)c1N	inconclusive: 28.2 µM [quencher, side channel, partial curve]	
CCN1C(=O)c2cccc3c(NC(=O)C4CCCCC4)ccc1c23	inconclusive: 11.2 µM [quencher, side channel, partial curve]	
Cc1nc([N+](=O)[O-])c(SCC(N)=O)n1Cc1ccccc1	inconclusive: 20 µM [quencher, side channel, single point]	
Cc1ccc(S(=O)(=O)/C(C#N)=C/c2c(N3CCOCC3)nc3c(C)cccn3c2=O)cc1	inconclusive: 15.8 µM [quencher, side channel, partial curve]	

Structure (SMILES)	Potency	activity change, negative = inhibition
O=C(CNS(=O)(=O)c1cccs1)N1CCN(c2ccccn2)CC1		inactive: 0.0176%
NC(=O)N/N=C/c1ccc(-n2nncc2-c2ccc(Cl)cc2)cc1	inconclusive: 17.8 µM [quencher, side channel, single point]	
Cc1cc(Cl)ccc1Oc1ncnc2onc(C)c12		inactive: -0.727%
CCOC(=O)c1sc(=S)n(-c2ccc(Cl)cc2)c1C	inconclusive: 17.8 µM [quencher, side channel, single point]	
Cc1nn(Cc2ccc([N+](=O)[O-])cc2)c(=O)n1-c1cccc(F)c1	inconclusive: 31.6 µM [quencher, side channel, single point]	
Cn1c(=N)n(CC(=O)O)c2ccccc21		inactive: -18.4%
O=C(Nc1ccc(S(=O)(=O)N2CCCCCC2)cc1)c1[nH]ncc1[N+](=O)[O-]	inconclusive: 25.1 µM [quencher, side channel, single point]	
Cc1[nH]c2ccccc2c1Cc1n[nH]c(=S)n1C	inconclusive: 50.1 µM [inhibitor, partial curve]	
CC1(OC(=O)c2cccs2)C(=O)C=C2C=C3CCCN3C=C2C1=O (stereo not drawn)	inconclusive: 28.2 µM [quencher, side channel, partial curve]	
CCOC(=O)c1c(C)oc2c1c(CN1CCN(C(=O)OCC)CC1)c(O)c1ccccc12		inactive: 12.7%
N=c1c(C(=O)NCc2ccco2)cc2c(=O)n3ccccc3nc2n1Cc1ccccc1	inconclusive: 8.91 µM [quencher, side channel, partial curve]	
CCOC(=O)C1CCN(C(=O)c2cc3cc4cc(OC)ccc4nc3o2)CC1	inconclusive: 7.94 µM [quencher, side channel, full curve, poor fit]	
Cc1cccc[n+]1CCCCCCCCCC[n+]1ccccc1C		inactive: -5.21%
COC(=O)CSc1nc2ccccc2c(=O)n1Cc1ccccc1	inconclusive: 39.8 µM [fluorescent, side channel, single point]	
COC(=O)c1ccc(CN2CCC(CO)(Cc3cccc(OC)c3)CC2)cc1		inactive: -9.75%
COc1cccc(NC(=O)CN(C2=NC3CS(=O)(=O)CC3S2)c2cccc(C)c2)c1 (stereo not drawn)		inactive: -19.5%
C(=C\c1ccco1)/C=N/n1cnnc1	inconclusive: 31.6 µM [quencher, side channel, partial curve]	
CC1(C)CC(=O)C=C(NCCc2ccc(S(N)(=O)=O)cc2)C1	inconclusive: 25.1 µM [quencher, side channel, partial curve]	
CCOC(=O)N1CCN(C(=O)c2ccc(CS(=O)(=O)c3ccc(OC)cc3)o2)CC1	inconclusive: 8.91 µM [quencher, side channel, single point]	
CCOC(=O)C1=C(C)Nc2nc(C)nn2C1c1cc(OC)ccc1OC (stereo not drawn)	inconclusive: 79.4 µM [inhibitor, partial curve, poor fit]	
O=C(O)c1cc(NC(=O)c2ccc3c(c2)C(=O)N(Cc2cccnc2)C3=O)cc(C(=O)O)c1	inconclusive: 3.16 µM [quencher, side channel, full curve, poor fit]	
